This experiment concerns the target MUC1-C antigen (human) (UniProt P15941). The experiment is described as follows: ELISA on MUC1-C antigen, antibody at 1 ug/ml.

Several values for one entry are separate records, joined by “and”; a condition that tells them apart may be missing. Identical values can stand only once.

Consider 1 molecule from US20240262930A1.

Sequence of UniProt P15941 (P15941 1098-1155 limits assumed): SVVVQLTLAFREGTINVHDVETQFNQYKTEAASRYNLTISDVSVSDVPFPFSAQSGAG

B1: 3D1 (antibody, from another filing, V domains shown)
VH: QVQLQQSGAELVRPGSSVKISCKTSGYAFSNFWMNWVKQRPGQGLEWIGQIYPGDGDTNYNGKFKGKATLTADKSSSTAYMQLSSLTSEASAVYFCARSYYRSAWFAYWGQGTLVSVSA
VL: DILLTQSPAILSVSPGERVSFS[about 80 residues left out here]FGAGTKLELK
Take B1: the OD is 2.68 OD and 2.79 OD.
